{
  "source": "PubChem BioAssay AID1569",
  "about": "(National Center for Advancing Translational Sciences (NCATS), 2009)",
  "note": "The shares of active, inactive and inconclusive entries below differ from those in the screen. Where the call is inconclusive, the potency comes from a doubtful curve fit. Activity calls are given as the source filed them. Calls follow the shape of the dose curve; as a rule, active = well fitted inhibition curve with a large enough effect; inconclusive = small, poorly fitted or top-dose-only effect, or effect the other way, or another doubt; inactive = no such curve, though single readings can be large or run the other way. Potency is read from the fitted curve at half-maximal effect; tags tell the direction and shape of the fitted curve.",
  "data": [
    {"test": "Confirmation Concentration-Response Assay for lipid storage modulators; also: nearly all actives have a fitted effect of over 80% in size", "settings": "Drosophila S3 cells, lipid droplet BODIPY/CellTracker ratio, 18-24 h; activity change, negative = inhibition: at 46.1 µM (top of the series)", "description": "NIH Molecular Libraries Probe Production Centers Network [MLPCN] NIH Chemical Genomics Center [NCGC] MLPCN Grant: 1 R03 MH085686-01 Assay Submitter (PI): Beller, Mathias; Max-Planck-Institut fur Biophysikalische Chemie NCGC Assay Overview: Storing lipids as a reservoir for energy or the anabolism of elementary metabolites is a common feature of probably all cells and is conserved from bacteria to humans. The universal cellular lipid storage organelle is the so-called lipid storage droplet (LD). Although ubiquitous, LDs share a simple structure composed of a hydrophobic core that harbors the storage lipids, which is shielded by a droplet-specific phospholipid monolayer to which proteins are attached. The current model of LD biogenesis involves an incorporation of the lipid core into the membrane leaflets of the endoplasmic reticulum (ER) followed by a subsequent budding-like maturation of a LD, which ultimately pinches off. Once released, LD volume can increase by localized lipogenesis or fusion of existing droplets. Storage lipids are re-mobilized enzymatically by lipase activity. Lipase regulation in the adipocyte is heavily studied and involves multiple components including catecholamine signaling, the LD-associated proteins Perilipin and comparative gene identification-58 (CGI-58) and at least two lipases named hormone sensitive lipase (HSL) and adipocyte triglyceride lipase (ATGL). LD regulation outside of the adipocyte is poorly understood and only few components are known. However, there is an urgent need to learn more about ectopic fat depots as mislocalized storage of lipids, for example in the liver or muscle, is an eminent health problem associated with insulin resistance or the metabolic syndrome. We developed a laser-scanning cytometer assay to enable 1,536-well screening and combined the results of the small molecules screen with an RNAi database based on lipid storage. Exo1 identified in the primary screen (AID 1519) and several analogs were measured in the lipid storage assay as 24-point concentration-response curves to confirm potency and SAR.\nWe dispensed 4 uL of cells at 1.25 x 10^6 cells/mL into LoBase Aurora COC 1,536-well plates (black walled, clear bottom) with a bottle-valve solenoid-based dispenser (Aurora) to obtain 5,000 cells/well. Triacsin C (Sigma-Aldrich T-4540), an inhibitor of long-chain fatty acyl CoA synthetase that blocks synthesis of triglycerides, was used as a positive control for lipid under-storage. A total of 23 nL of compound solution of different concentrations were transferred to the assay plates using a Kalypsys pin tool equipped with a 1,536-pin array containing 10-nL slotted pins (FP1S10, 0.457-mm diameter, 50.8 mm long; V&P Scientific). One microliter of oleic acid (400 uM) was added, and the plate was lidded with stainless steel rubber gasket lined lids containing pinholes. After 18-24 h incubation at 24 degree Celsius and 95% humidity, 4 uL of the dyes BODIPY 493/503 (Molecular Probes) and the Cell Tracker Red CMTPX dye (Molecular Probes) were added to the wells to stain lipid droplets and enumerate cell number, respectively. Fluorescence was detected by excitation of the fluorophores with a 488-nm laser on an Acumen Explorer (TTP Lab Tech). The total intensity in channel 1 (500-530 nm) reflected lipid droplet accumulation. Cells were detected using channel 3 (575- 640 nm) with 5-um width and 100-um depth filters. The ratio of the total intensity in PMT channel 1 over total intensity of channel 3 was also calculated. Percent activity was computed relative to an internal control (100% inhibited lipid droplet deposition due to the presence of 20 uM Triacsin C), which was added to 32 wells/plate.", "values": [
      {"molecule": "Cc1ccccc1NS(=O)(=O)c1ccc(NC(=O)c2ccco2)cc1", "Potency": "inconclusive: 1.25 µM [activator, full curve]"},
      {"molecule": "Cc1ccc2c(Cl)cc(Cl)c(OCC(=O)Nc3cccc(S(=O)(=O)N(C)C)c3)c2n1", "Potency": "inconclusive: 2.23 µM [activator, full curve]"},
      {"molecule": "Cc1ccc(NC(=O)CN(C)C(=O)Cn2ncc(Cl)c(Cl)c2=O)cc1", "Potency": "active: 28.1 µM"},
      {"molecule": "CCOc1ccc(-c2n[nH]c(C)c2-c2ccccc2OC)c(O)c1", "Potency": "inconclusive: 35.3 µM [falling, single point]"},
      {"molecule": "O=C(NCCc1ccc2c(c1)OCCO2)c1cc(F)cc(F)c1", "Potency": "inconclusive: 9.96 µM [activator, partial curve, poor fit]"},
      {"molecule": "O=C(Nc1cccc(F)c1)NC1(C(=O)N2CCC(O)CC2)CCCCC1", "activity change, negative = inhibition": "inactive: 23.6%"},
      {"molecule": "O=C(COc1ccccc1[N+](=O)[O-])Nc1cccc(Cl)c1N1CCOCC1", "Potency": "inconclusive: 11.2 µM [activator, single point]"},
      {"molecule": "Cc1onc(-c2ccccc2)c1C(=O)N/N=C/c1cc2c(cc1Cl)OCO2", "Potency": "inconclusive: 2.23 µM [activator, full curve]"},
      {"molecule": "Cc1csc2nc(=O)c3ccccc3n12", "Potency": "inconclusive: 8.88 µM [activator, partial curve]"},
      {"molecule": "CCOC(=O)C1CCN(C(=O)C2(NC(=O)Nc3ccccc3C)CCCCC2)CC1", "Potency": "active: 2.5 µM"},
      {"molecule": "CCc1ccc(NC(=O)COc2ccc(/C=C(/C#N)c3nc4ccccc4[nH]3)cc2OC)cc1", "Potency": "active: 7.05 µM"},
      {"molecule": "Cc1cccnc1NC(=O)c1ccc2nc(N)sc2c1", "Potency": "inconclusive: 2.5 µM [activator, full curve]"},
      {"molecule": "Cc1cc(S(=O)(=O)NC2CCCCC2)ccc1OCC(=O)NCc1ccccn1", "Potency": "inconclusive: 2.5 µM [activator, full curve]"},
      {"molecule": "COc1ccccc1NC(=O)C1=C(C)Nc2ncnn2C1c1ccc(C)o1", "note": "(stereo not given)", "Potency": "inconclusive: 14.1 µM [activator, partial curve]"},
      {"molecule": "COc1ccccc1NC(=O)c1oc2ccccc2c1NC(=O)c1ccco1", "Potency": "inconclusive: 0.628 µM [activator, full curve]"},
      {"molecule": "COc1ccccc1C(=O)O[C@H]1[C@H](Cc2ccccc2)NS(=O)(=O)[C@H]2C[C@@H]3C=C[C@]12O3", "Potency": "active: 8.88 µM"},
      {"molecule": "O=C(COc1ccccc1)NCC(=O)NC1CCCCC1", "activity change, negative = inhibition": "inconclusive: 128% [activator]"},
      {"molecule": "CCn1c(COc2ccc(Cl)cc2)nnc1SCC(=O)Nc1ccc2c(c1)OCCO2", "Potency": "active: 11.2 µM"},
      {"molecule": "Cc1cc(NC(=O)CCC(=O)N(c2cccc(F)c2)C(C(=O)NC2CCCC2)c2ccccc2)no1", "note": "(stereo not given)", "Potency": "inconclusive: 15.8 µM [activator, partial curve, poor fit]"},
      {"molecule": "O=C(NC1CCCc2c1cnn2-c1ccccc1F)c1ccccn1", "note": "(stereo not given)", "Potency": "active: 0.0079 µM"},
      {"molecule": "CCN(CC)S(=O)(=O)c1ccc2c(c1)nc(CCC(=O)Nc1ccccc1Cc1ccccc1)n2CC", "Potency": "inconclusive: 8.88 µM [activator, partial curve]"},
      {"molecule": "COc1ccc(CCNC(=O)[C@H](C)N2C(=O)N3CCc4c([nH]c5ccccc45)[C@@]3(C)C2=O)cc1OC", "Potency": "active: 0.56 µM"},
      {"molecule": "COc1ccc2c(c1)c1nc3ccccc3nc1n2CC(=O)OC(C)C", "Potency": "inconclusive: 0.56 µM [activator, full curve]"},
      {"molecule": "CCOC(=O)c1cc(CC)sc1NC(=O)C1CC(=O)NN1Cc1ccccc1", "note": "(stereo not given)", "Potency": "active: 0.315 µM"},
      {"molecule": "Cc1ccoc1C(=O)Nc1cccc(Oc2ccccc2)c1", "Potency": "inconclusive: 0.705 µM [activator, full curve]"},
      {"molecule": "COc1ccc(CCNC(=O)CC2Oc3ccc(Cl)cc3NC2=O)cc1OC", "note": "(stereo not given)", "activity change, negative = inhibition": "inconclusive: 31.3% [activator]"},
      {"molecule": "CCOC(=O)c1c(NC(=O)CSc2ncn[nH]2)sc(C)c1C", "Potency": "inconclusive: 4.99 µM [activator, full curve]"},
      {"molecule": "CNC(=O)COC(=O)c1cc2c(C)nn(-c3ccc(F)cc3)c2s1", "Potency": "inconclusive: 6.28 µM [activator, partial curve]"},
      {"molecule": "COCc1ccc(C(=O)NC(C)c2cnn(-c3ccccc3C)c2C)o1", "note": "(stereo not given)", "Potency": "active: 12.5 µM"},
      {"molecule": "COc1ccc(NC(=O)Cc2csc(NC(=O)Nc3ccccc3OC)n2)c(OC)c1", "activity change, negative = inhibition": "inconclusive: 232% [activator]"},
      {"molecule": "Cc1cnc(NC(=O)CSc2ncc(-c3ccccc3)n2Cc2ccco2)s1", "activity change, negative = inhibition": "inactive: 8.73%"},
      {"molecule": "COc1ccc(-c2nc3ccccc3c(=O)n2CCOc2cc(C)ccc2C)cc1", "activity change, negative = inhibition": "inconclusive: 462% [activator]"},
      {"molecule": "COc1ccc(NC(=O)c2cc3c(=O)n(C)c4ccccc4c3n2C)cc1OC", "Potency": "inconclusive: 0.499 µM [activator, full curve]"},
      {"molecule": "Cc1ccc(Oc2nc3ccccc3n3c(C)nnc23)c(C)c1", "Potency": "inconclusive: 0.791 µM [activator, full curve]"},
      {"molecule": "COc1ccc(CCNC(=O)c2cccc(NC(=O)CC3SC(N4CCCCC4)=NC3=O)c2)cc1OC", "note": "(stereo not given)", "Potency": "inconclusive: 1.25 µM [activator, partial curve, poor fit]"},
      {"molecule": "O=C(Nc1ccc(S(=O)(=O)N2CCCCC2)cc1)c1ccc(CN2CCc3ccccc3C2)cc1", "Potency": "active: 7.91 µM"},
      {"molecule": "CCOc1cc(NC(=O)c2ccco2)c(OCC)cc1NC(=O)c1ccco1", "activity change, negative = inhibition": "inconclusive: 88.1% [activator]"},
      {"molecule": "COc1cc(NC(=O)c2cc3ccccc3cc2OC)ccc1NC(=O)c1cccs1", "Potency": "inconclusive: 35.3 µM [falling, single point]"},
      {"molecule": "CCOc1ccc(S(=O)(=O)n2cc(-c3ccc(F)cc3)c(N)n2)cc1", "Potency": "inconclusive: 3.53 µM [activator, full curve]"},
      {"molecule": "CCOC(=O)c1cnc2ccc(C)cc2c1Nc1ccc(N2CCOCC2)cc1", "Potency": "inconclusive: 2.23 µM [activator, partial curve]"}
    ]}
  ]
}
